# Assay results as given in paper PMC4336329 (PLoS ONE, 2015).
# Out of some 310,000 compounds screened, about 2,200 (0.71%) showed an effect of 50% or more. Effects have a minus sign here. The list shows a part of the results.
# Molecular target: human ether-à-go-go-related gene (hERG) potassium channel (human, UniProt Q12809)
# Assay: primary screen, population patch clamp on CHO cells stably expressing hERG
# Sequence of human ether-à-go-go-related gene (hERG) potassium channel (Q12809 whole entry, looked up): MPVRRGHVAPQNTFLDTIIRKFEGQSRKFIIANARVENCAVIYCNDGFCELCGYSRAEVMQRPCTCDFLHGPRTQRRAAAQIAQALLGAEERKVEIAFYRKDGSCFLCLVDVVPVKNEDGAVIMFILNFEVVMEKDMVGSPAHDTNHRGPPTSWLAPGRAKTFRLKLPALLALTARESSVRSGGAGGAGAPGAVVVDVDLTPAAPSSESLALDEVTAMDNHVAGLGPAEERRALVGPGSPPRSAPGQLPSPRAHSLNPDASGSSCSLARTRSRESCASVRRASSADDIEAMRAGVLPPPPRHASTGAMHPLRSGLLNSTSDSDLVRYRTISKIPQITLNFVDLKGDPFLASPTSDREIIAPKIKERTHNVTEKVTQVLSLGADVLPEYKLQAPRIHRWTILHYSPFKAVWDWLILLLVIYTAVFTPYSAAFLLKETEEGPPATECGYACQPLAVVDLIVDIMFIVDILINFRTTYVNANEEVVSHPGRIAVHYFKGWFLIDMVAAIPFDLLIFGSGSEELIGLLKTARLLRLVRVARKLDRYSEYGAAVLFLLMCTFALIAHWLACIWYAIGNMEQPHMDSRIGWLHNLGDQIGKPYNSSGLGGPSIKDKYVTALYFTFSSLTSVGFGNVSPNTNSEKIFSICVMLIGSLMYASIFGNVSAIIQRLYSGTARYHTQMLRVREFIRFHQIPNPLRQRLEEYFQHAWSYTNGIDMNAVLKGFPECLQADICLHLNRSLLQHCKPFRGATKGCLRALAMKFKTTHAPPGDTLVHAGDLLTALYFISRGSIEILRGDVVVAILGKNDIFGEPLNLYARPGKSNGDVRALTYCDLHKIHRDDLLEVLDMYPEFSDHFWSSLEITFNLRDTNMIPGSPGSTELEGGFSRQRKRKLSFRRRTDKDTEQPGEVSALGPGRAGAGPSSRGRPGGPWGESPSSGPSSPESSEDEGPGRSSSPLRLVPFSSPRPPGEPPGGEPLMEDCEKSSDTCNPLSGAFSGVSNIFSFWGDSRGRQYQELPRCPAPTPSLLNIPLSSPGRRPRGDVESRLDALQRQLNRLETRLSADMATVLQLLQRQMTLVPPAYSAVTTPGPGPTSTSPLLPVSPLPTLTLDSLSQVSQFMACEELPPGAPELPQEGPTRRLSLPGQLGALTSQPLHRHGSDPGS
row,SMILES,"hERG current change (%, negative = inhibition) at 1uM"
1,COc1ccc(Nc2ncc(C(=O)N3CCN(c4ccccc4OC)CC3)c3ccccc23)cc1,3.52%
2,COc1ccc2ccc(OCC(=O)Nc3cc(C)on3)cc2c1,15.9%
3,Br.O=C(CN1CCSC1=NCc1ccccc1)c1ccccc1,-0.299%
4,CCCn1nc(C(=O)NNC(=O)CSC(C)C(=O)Nc2cc(C)on2)c2ccccc2c1=O (stereo not drawn),-10.5%
5,Cc1ccc2nc(SCC(=O)NCCc3ccccc3)nc(=O)n2c1,18.5%
6,Cc1cc(OC(C)C(=O)NCC(O)c2ccccc2)c2c(C)c(C)c(=O)oc2c1 (stereo not drawn),16.7%
7,C=CCn1c(SCCCc2ccccc2)nc2c1c(=O)[nH]c(=O)n2C,-6.47%
8,CC(C)CNC(=O)Nc1ccccc1F,18.1%
9,CN1CCN(C(=O)c2cc3c(C(F)(F)F)nn(C)c3s2)CC1,20.8%
10,FC(F)(F)c1cnc(COc2cc(Cl)cc(Cl)c2)c(Cl)c1,13.5%
11,CCC1CCc2c(sc(NC(=O)CSc3nc(-c4ccco4)cc(C(F)(F)F)n3)c2C#N)C1 (stereo not drawn),13.2%
12,COC(CN(C)C(=O)c1ccc2c(c1)NC(=O)c1ccccc1S2)OC,10.6%
13,C=CCn1c(SCC(=O)Nc2ccc3c(c2)OCO3)nnc1-c1cc(Br)ccc1O,2.16%
14,Cn1c(=O)c2c(ncn2CC(=O)N2CCOCC2)n(C)c1=O,-5.21%
15,COc1c(C)cc(C(=O)C2CCCN(C(=O)c3csc(C)n3)C2)cc1C (stereo not drawn),2.63%
16,Cc1ccc(NC(C)C(=O)N/N=C/c2ccc([N+](=O)[O-])s2)cc1 (stereo not drawn),12%
17,CC(C)OC(=O)CSc1nnc(-c2ccc([N+](=O)[O-])cc2)o1,10.7%
18,CN(CC(=O)Nc1c(Cl)cccc1Cl)C(=O)CCc1nc2sc3c(c2c(=O)[nH]1)CCCC3,12.9%
19,CCCCCC(=O)Nc1cccc(C2=NOC3(C2)C[C@@H](C(N)=O)N(C(=O)c2ccc(OC)cc2)C3)c1 (stereo partly drawn),9.3%
20,CCc1ccc(NC(=O)Cn2nnc(C(=O)NCc3ccc(OC)cc3)c2N)cc1,9.72%
21,Cc1cc2c(NC(=O)Nc3ccc(C(C)(C)C)cc3)cccc2nn1,12.2%
22,C=CCn1c(-c2cccc(OC)c2OC)n[nH]c1=S,6.77%
23,COc1cccc(NC(=S)N(CCCN2CCN(C)CC2)Cc2ccco2)c1,-7.46%

row,SMILES,"hERG current change (%, negative = inhibition) at 1uM"
1,Cc1ccc(C(=O)N/C(=C/c2cccnc2)C(=O)N2CCCCCC2)cc1,-5.61%
2,COc1ccc(Nc2nc(N)nc(CN(C)C3CCCCC3)n2)cc1,-17.9%
3,Cc1cc(F)ccc1S(=O)(=O)Nc1ccccc1C(=O)Nc1ccc2[nH]c(=O)[nH]c2c1,14.7%
4,Cc1ccc(S(=O)(=O)N(CC(=O)NCc2cccnc2)C2CCCCC2)cc1,-30.3%
5,CN(C)S(=O)(=O)c1ccc(Cl)c(NC(=O)COC(=O)c2ccc(O)cc2)c1,9.88%
6,O=C(CSc1nc2c(sc3ccccc32)c(=O)n1CCCN1CCOCC1)NC1CCCC1,-26.8%
7,Cc1nc(C)c(C(=O)OCC(=O)Nc2cccc(C)c2C)s1,10.5%
8,Cc1nc(-c2ccc(Cl)cc2)sc1C1(C)CC(c2ccccc2)=NO1 (stereo not drawn),15%
9,Cc1cccc(C)c1OCc1cc(C(=O)N(Cc2nccn2C)C(C)C)no1,-11.8%
10,Cc1ccc2[nH]c(=O)c3cc(C(=O)NCCN4CCN(C)CC4)sc3c2c1,5.17%
11,N#CCn1cnc2c(oc3ccccc32)c1=O,14.7%
12,COc1ccc(/C(N)=C/C(=O)C(C)(C)C)cc1,1.31%
13,CC(C)c1nc2sc3c(=O)[nH]cnc3c2c2c1CCCC2,14.1%
14,O=C(NCCNC(=O)c1ccccn1)c1cccc(F)c1,25%
15,CN1CCN(C(=S)c2ccc(Br)cc2)CC1,-4.31%
16,COc1cc(OC)cc(C(=O)NC(=S)Nc2nnn(C)n2)c1,13%
17,CCOC(=O)c1ccc(NC(=O)NCc2ccncc2)cc1,2.62%
18,CCn1ccnc1CNCc1ccc(OCC(O)CN(C)Cc2ccccc2)cc1 (stereo not drawn),-2.51%
19,O=C(Nc1nc2c(s1)CCCC2)c1cc(-c2ccc3c(c2)OCO3)nc2ccccc12,6.39%
20,COC(=O)c1sccc1NC(=S)N1CCN(c2cc(C)ccc2C)CC1,14.6%
21,COc1cccc(CNCC(O)(c2ccc(Cl)cc2)c2ccc(Cl)cc2)c1,10.8%
22,COc1ccc(C(=O)Nc2ccccc2C(=O)NC(Cc2ccc(O)cc2)C(=O)NNC(=O)c2ccccc2Cl)cc1 (stereo not drawn),14.8%
